PubChem BioAssay (NCI)
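Cells were grown in 96-well plates and exposed to each compound for 48 hours at five concentrations; endpoints were interpolated linearly between bracketing concentrations, or set to the highest concentration if not reached. GI50: concentration for 50% inhibition of growth. At the TGI there is no net growth.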

System: NCI-H322M lung
Experiment: NCI anticancer screen, dose series, 48 h

SMILES	GI50	TGI
CC(C)(C)Nc1nc2c(OCCc3ccccc3)cccn2c1-c1cccc(F)c1	8.35 µM	> 100 µM
CN(C)CCCOc1c2ccc(Cl)cc2nc2c1oc1ccc(Cl)cc12	3.66 µM	15.3 µM
